Source: PMC8017931
These are yes or no findings as the source states them, for the method shown. In cells and extracts the contact can be indirect. Sequences can lack the tags named with a protein.

Chains of the proteins cited; added tags and fusions are not shown.
UniProt O00429: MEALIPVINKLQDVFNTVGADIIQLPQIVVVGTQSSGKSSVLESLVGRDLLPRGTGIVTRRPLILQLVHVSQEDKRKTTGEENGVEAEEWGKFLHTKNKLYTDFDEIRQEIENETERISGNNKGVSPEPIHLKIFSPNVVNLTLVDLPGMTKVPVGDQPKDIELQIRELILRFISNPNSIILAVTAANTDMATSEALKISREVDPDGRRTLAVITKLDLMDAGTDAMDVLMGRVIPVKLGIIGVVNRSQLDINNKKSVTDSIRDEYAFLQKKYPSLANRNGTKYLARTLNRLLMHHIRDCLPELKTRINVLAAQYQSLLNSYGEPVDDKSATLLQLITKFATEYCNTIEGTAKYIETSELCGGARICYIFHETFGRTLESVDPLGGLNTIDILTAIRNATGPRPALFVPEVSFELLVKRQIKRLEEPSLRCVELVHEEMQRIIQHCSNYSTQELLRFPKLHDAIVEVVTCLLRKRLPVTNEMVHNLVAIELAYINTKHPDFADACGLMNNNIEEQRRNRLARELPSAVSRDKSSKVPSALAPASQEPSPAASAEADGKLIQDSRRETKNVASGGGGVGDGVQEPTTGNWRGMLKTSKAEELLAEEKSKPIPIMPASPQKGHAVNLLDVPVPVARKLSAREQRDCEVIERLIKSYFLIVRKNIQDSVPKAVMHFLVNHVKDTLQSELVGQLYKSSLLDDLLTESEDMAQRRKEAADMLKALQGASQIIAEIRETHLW

Biological target: T1, FLAG-tagged full length ARMC12 (armadillo repeat-containing 12) (mouse) (UniProt Q80X86)
T1 sequence: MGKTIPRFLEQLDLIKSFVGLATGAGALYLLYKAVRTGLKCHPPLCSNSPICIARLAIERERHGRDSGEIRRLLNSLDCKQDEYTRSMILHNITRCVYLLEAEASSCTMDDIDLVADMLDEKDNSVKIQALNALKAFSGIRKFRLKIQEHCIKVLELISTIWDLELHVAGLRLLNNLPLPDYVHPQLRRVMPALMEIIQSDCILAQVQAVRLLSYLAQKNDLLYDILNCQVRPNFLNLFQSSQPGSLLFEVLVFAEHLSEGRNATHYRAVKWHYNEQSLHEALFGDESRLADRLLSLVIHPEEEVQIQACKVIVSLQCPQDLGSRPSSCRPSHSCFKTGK
Experiment: co-IP; lysates of HEK293T cells transfected with FLAG-tagged ARMC12 (full length or truncated); immunoprecipitation with anti-FLAG antibody; immunoblot for the endogenous partner

binding: no binding
Substance: DNM1L (endogenous, HEK293T) (from UniProt O00429 1-736)
